Measured values reported in the supplement of paper PMC8728848.
The other results are listed elsewhere or left out.

Key:
Assay in all cases: glycan array binding signal (z-score within array); higher = stronger binding
Conditions in all cases: glycan notation: IUPAC condensed, linker removed
[1] = target: Gal(b1-3)[Fuc(a1-4)]GlcNAc(b1-3)Gal(b1-4)GlcNAc
Procedure, shortened: (§1)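 Glycan array binding is given as a within-array Z-score, which can be read as non-binding when negative. The arrays, 3228 of them, came from the Consortium for Functional Glycomics database and were retained only where the protein sequence was available. Z-scores were averaged across arrays of the same protein sequence at different concentrations or buffers and across linkers.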

[2] = target: Gal(b1-3)[Fuc(a1-4)]GlcNAc(b1-3)Gal(b1-4)[Fuc(a1-3)]GlcNAc
Procedure, shortened: as §1

[3] = target: Gal(b1-3)[Fuc(a1-4)]GlcNAc(b1-6)GalNAc
Procedure, shortened: as §1

[4] = target: Gal(b1-3)[GlcNAc(b1-6)]GalNAc
Procedure, shortened: as §1

[5] = target: Gal(b1-3)[GlcNAc(b1-6)]GlcNAc
Procedure, shortened: as §1

[6] = target: Gal(b1-3)[Neu5Ac(a2-6)]GalNAc
Procedure, shortened: as §1

[7] = target: Gal(b1-3)[Neu5Ac(a2-6)]GlcNAc
Procedure, shortened: as §1

[8] = target: Gal(b1-3)[Neu5Ac(a2-6)]GlcNAc(a1-4)Gal(b1-4)Glc
Procedure, shortened: as §1

[9] = target: Gal(b1-3)[Neu5Ac(a2-6)]GlcNAc(b1-4)Gal(b1-4)Glc
Procedure, shortened: as §1

[10] = target: Gal(b1-3)[Neu5Ac(b2-6)]GalNAc
Procedure, shortened: as §1

[11] = target: Gal(b1-3)[Neu5Ac(b2-6)]GlcNAc
Procedure, shortened: as §1

Gal(b1-4)Gal = target: Gal(b1-4)Gal
Procedure, shortened: as §1

[12] = target: Gal(b1-4)GalNAc(a1-3)[Fuc(a1-2)]Gal(b1-4)GlcNAc
Procedure, shortened: as §1

[13] = target: Gal(b1-4)GalNAc(b1-3)[Fuc(a1-2)]Gal(b1-4)GlcNAc
Procedure, shortened: as §1

Gal(b1-4)Glc = target: Gal(b1-4)Glc
Procedure, shortened: as §1

Gal(b1-4)Glc6S = target: Gal(b1-4)Glc6S
Procedure, shortened: as §1

Gal(b1-4)GlcNAc = target: Gal(b1-4)GlcNAc
Procedure, shortened: as §1

[14] = target: Gal(b1-4)GlcNAc(a1-6)Gal(b1-4)GlcNAc
Procedure, shortened: as §1

Gal(b1-4)GlcNAc(b1-2)Man = target: Gal(b1-4)GlcNAc(b1-2)Man
Procedure, shortened: as §1

[15] = target: Gal(b1-4)GlcNAc(b1-2)Man(a1-3)Man(b1-4)GlcNAc(b1-4)GlcNAc
Procedure, shortened: as §1

[16] = target: Gal(b1-4)GlcNAc(b1-2)Man(a1-3)[Gal(b1-4)GlcNAc(b1-2)Man(a1-6)]Man(b1-4)GlcNAc(b1-4)GlcNAc
Procedure, shortened: as §1

[17] = target: Gal(b1-4)GlcNAc(b1-2)Man(a1-3)[Gal(b1-4)GlcNAc(b1-2)Man(a1-6)]Man(b1-4)GlcNAc(b1-4)[Fuc(a1-6)]GlcNAc
Procedure, shortened: as §1

[18] = target: Gal(b1-4)GlcNAc(b1-2)Man(a1-3)[Gal(b1-4)GlcNAc(b1-2)Man(a1-6)][Gal(b1-4)GlcNAc(b1-4)]Man(b1-4)GlcNAc(b1-4)[Fuc(a1-6)]GlcNAc
Procedure, shortened: as §1

[19] = target: Gal(b1-4)GlcNAc(b1-2)Man(a1-3)[Gal(b1-4)GlcNAc(b1-2)Man(a1-6)][GlcNAc(b1-4)]Man(b1-4)GlcNAc(b1-4)[Fuc(a1-6)]GlcNAc
Procedure, shortened: as §1

[20] = target: Gal(b1-4)GlcNAc(b1-2)Man(a1-3)[GlcNAc(b1-2)Man(a1-6)]Man(b1-4)GlcNAc(b1-4)GlcNAc
Procedure, shortened: as §1

[21] = target: Gal(b1-4)GlcNAc(b1-2)Man(a1-3)[GlcNAc(b1-4)][Gal(b1-4)GlcNAc(b1-2)Man(a1-6)]Man(b1-4)GlcNAc(b1-4)GlcNAc
Procedure, shortened: as §1

[22] = target: Gal(b1-4)GlcNAc(b1-2)Man(a1-3)[Man(a1-6)]Man(b1-4)GlcNAc(b1-4)GlcNAc
Procedure, shortened: as §1

[23] = target: Gal(b1-4)GlcNAc(b1-2)Man(a1-6)Man(b1-4)GlcNAc(b1-4)GlcNAc
Procedure, shortened: as §1

[24] = target: Gal(b1-4)GlcNAc(b1-2)Man(a1-6)[GlcNAc(b1-2)Man(a1-3)]Man(b1-4)GlcNAc(b1-4)GlcNAc
Procedure, shortened: as §1

[25] = target: Gal(b1-4)GlcNAc(b1-2)Man(a1-6)[Man(a1-3)]Man(b1-4)GlcNAc(b1-4)GlcNAc
Procedure, shortened: as §1

[26] = target: Gal(b1-4)GlcNAc(b1-2)[Gal(b1-4)GlcNAc(b1-4)]Man(a1-3)[Gal(b1-4)GlcNAc(b1-2)Man(a1-6)]Man(b1-4)GlcNAc(b1-4)GlcNAc
Procedure, shortened: as §1

[27] = target: Gal(b1-4)GlcNAc(b1-2)[Gal(b1-4)GlcNAc(b1-4)]Man(a1-3)[Gal(b1-4)GlcNAc(b1-2)[Gal(b1-4)GlcNAc(b1-6)]Man(a1-6)]Man(b1-4)GlcNAc(b1-4)GlcNAc
Procedure, shortened: as §1

[28] = target: Gal(b1-4)GlcNAc(b1-2)[Gal(b1-4)GlcNAc(b1-4)]Man(a1-3)[GlcNAc(b1-4)][Gal(b1-4)GlcNAc(b1-2)Man(a1-6)]Man(b1-4)GlcNAc(b1-4)GlcNAc
Procedure, shortened: as §1

[29] = target: Gal(b1-4)GlcNAc(b1-2)[Gal(b1-4)GlcNAc(b1-4)]Man(a1-3)[GlcNAc(b1-4)][Gal(b1-4)GlcNAc(b1-2)[Gal(b1-4)GlcNAc(b1-6)]Man(a1-6)]Man(b1-4)GlcNAc(b1-4)GlcNAc
Procedure, shortened: as §1

[30] = target: Gal(b1-4)GlcNAc(b1-2)[Gal(b1-4)GlcNAc(b1-6)]Man(a1-6)[Gal(b1-4)GlcNAc(b1-2)Man(a1-3)]Man(b1-4)GlcNAc(b1-4)GlcNAc
Procedure, shortened: as §1

[31] = target: Gal(b1-4)GlcNAc(b1-2)[Gal(b1-4)GlcNAc(b1-6)]Man(a1-6)[Gal(b1-4)GlcNAc(b1-2)Man(a1-3)]Man(b1-4)GlcNAc(b1-4)[Fuc(a1-6)]GlcNAc
Procedure, shortened: as §1

[32] = target: Gal(b1-4)GlcNAc(b1-2)[Gal(b1-4)GlcNAc(b1-6)]Man(a1-6)[GlcNAc(b1-4)][Gal(b1-4)GlcNAc(b1-2)Man(a1-3)]Man(b1-4)GlcNAc(b1-4)GlcNAc
Procedure, shortened: as §1

[33] = target: Gal(b1-4)GlcNAc(b1-2)[Gal(b1-4)GlcNAc(b1-6)]Man(a1-6)[GlcNAc(b1-4)][Gal(b1-4)GlcNAc(b1-2)[Gal(b1-4)GlcNAc(b1-4)]Man(a1-3)]Man(b1-4)GlcNAc(b1-4)[Fuc(a1-6)]GlcNAc
Procedure, shortened: as §1

B1: Epa12 (Candida glabrata) (protein)
chain: MGSSHHHHHHSSGLVPRGSHMLEPDNSLQIFDSFLSNPSKYPLGCSPKITNPKKGLSMELYSYPYRKKGSHPCWDPAYLDPNFPRVGYKKNKLIARVDGVSGDINFNFHPKRQCTPIADYLPPNFNYNEPITTTNFTMLLYGYFKPKVTGLHTFDISADDLLFMNFGAGNAFDCCRRDSTADTFGNYVAWAIWGRRIVRNKLTVRLDKGIYYPLRLFFNNRDYYGQMRLTFKTEHGSERITDFSDYFFSVDDTSEGCPGLITYESECADVKSSTVLETDYITIQAEKE
[1]
  glycan array binding signal (z-score): -0.282
[2]
  glycan array binding signal (z-score): -0.311
[3]
  glycan array binding signal (z-score): -0.273
[4]
  glycan array binding signal (z-score): -0.224
[5]
  glycan array binding signal (z-score): 2.11
[6]
  glycan array binding signal (z-score): -0.146
[7]
  glycan array binding signal (z-score): -0.242
[8]
  glycan array binding signal (z-score): -0.272
[9]
  glycan array binding signal (z-score): 0.193
[10]
  glycan array binding signal (z-score): -0.204
[11]
  glycan array binding signal (z-score): -0.282
Gal(b1-4)Gal
  glycan array binding signal (z-score): -0.019
[12]
  glycan array binding signal (z-score): 0.125
[13]
  glycan array binding signal (z-score): 0.421
Gal(b1-4)Glc
  glycan array binding signal (z-score): 0.198
Gal(b1-4)Glc6S
  glycan array binding signal (z-score): 3.51
Gal(b1-4)GlcNAc
  glycan array binding signal (z-score): 0.202
[14]
  glycan array binding signal (z-score): 3.61
Gal(b1-4)GlcNAc(b1-2)Man
  glycan array binding signal (z-score): -0.38
[15]
  glycan array binding signal (z-score): -0.259
[16]
  glycan array binding signal (z-score): 0.425
[17]
  glycan array binding signal (z-score): -0.317
[18]
  glycan array binding signal (z-score): -0.41
[19]
  glycan array binding signal (z-score): -0.351
[20]
  glycan array binding signal (z-score): -0.245
[21]
  glycan array binding signal (z-score): -0.225
[22]
  glycan array binding signal (z-score): -0.214
[23]
  glycan array binding signal (z-score): -0.206
[24]
  glycan array binding signal (z-score): -0.119
[25]
  glycan array binding signal (z-score): -0.149
[26]
  glycan array binding signal (z-score): -0.082
[27]
  glycan array binding signal (z-score): -0.043
[28]
  glycan array binding signal (z-score): -0.266
[29]
  glycan array binding signal (z-score): 0.047
[30]
  glycan array binding signal (z-score): 0.014
[31]
  glycan array binding signal (z-score): -0.123
[32]
  glycan array binding signal (z-score): -0.134
[33]
  glycan array binding signal (z-score): -0.107
